Sequences with one replicate were seen in a single cluster, so their values are uncertain.
System: ATP
Assay: switch fluorescence ratio, 500 uM ATP over buffer (Cy3 cluster intensity, sum of 5 cycles each) (fold (ratio)); higher = stronger signal-on switching upon ATP binding; sequences stand for … in TCGTCGGCAGCGTCAGATGTGTATAAGAGACAGTTTTTTTTTTTTTTTTTTTTTTTTT…TC
Details: aptamer strand: ATP DNA aptamer (quencher-CACCTGGGGGAGTATTGCGGAGGAAGG + anchor), 100 nM annealed; ATP concentration: 500 uM; one replicate
Procedure, shortened: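 Between each of five buffer/ATP cycles, the flow-cell was stripped with NaOH and re-annealed. Each cycle imaged Cy3-labelled switching-strand clusters, annealed to 100 nM quencher-labelled ATP aptamer on a modified Illumina MiSeq flow-cell, first in selection buffer and then after 15 min with 500 uM ATP at 22 °C. The fluorescence ratio is summed target-cycle over summed buffer-cycle Cy3 intensity per cluster, averaged per switch-domain sequence, with clusters outside 100-1000 RFU excluded.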
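Further: ATP exposure 15 min at 22 °C before imaging.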

Row | Sequence | switch fluorescence ratio
1 | TATAACGTTT | 0.976
2 | AGGGTCCAGC | 0.976
3 | TATAGAGGTC | 1.07
4 | ATTTGGCTAC | 1.08
5 | AGTCCGGTGG | 1.11
6 | CTTTATTCCA | 0.993
7 | GTTCAATA | 1.28
8 | TGGTTGGGG | 0.973
9 | TGCGTATCTA | 1.01
10 | GGTTGCTGCT | 0.962
11 | CCTGTAAGTG | 0.968
12 | TTCATCCCTA | 1.02
13 | AGCGCCCGCC | 1.02
14 | GATGTTCTT | 0.952
15 | ACGTGTAGCC | 0.966
16 | ATATGCGGTC | 1.03
17 | GATAGAGTAA | 0.923
18 | TCATTTGGCC | 0.946
19 | CAATGGTAAT | 0.974
20 | TTACGGTGA | 0.994
21 | TGCTACCTCT | 1.02
22 | TCAACTGAGG | 1.02
23 | CTTCAACGAT | 1.04

Row | Sequence | switch fluorescence ratio
24 | GTCATCTGGA | 1.01
25 | CACAGTTGAT | 1.01
26 | AGATAGTTCT | 1.05
27 | TAGGAGAGAG | 0.975
28 | TCATTTCGCA | 1.33
29 | AAGAGATAAT | 0.978
30 | TTACAGGTTA | 0.977
31 | TAATACTTTC | 1.03
32 | TTCCGGCCTT | 1.18
33 | GGTAAGTACG | 1.2
34 | CGGGGTCAGC | 0.984
35 | AGTGAGATTA | 0.989
36 | GCGCTAGGTC | 0.998
37 | TGGAAGTTCG | 0.996
38 | AACAACGAGC | 0.973
39 | ATCTAATAGT | 1.02
40 | TATCTTGTAT | 1.08
41 | GATATTCAAG | 1.03
42 | ATCTTCTCCG | 1.98
43 | CAATGAAGAT | 0.977
44 | TGAAACACTA | 1.03
45 | TTCGCCGTGG | 0.974
46 | ATGCGGAGTC | 1.03

Row | Sequence | switch fluorescence ratio
47 | AGGCCAACCC | 1.03
48 | CATCGAATAT | 1.05
49 | ACGCGGGGCT | 1.05
50 | AAGCGTTGGC | 1.02
51 | CAGAGGTTGG | 0.987
52 | TTTGCCTTAA | 1.06
53 | GGCACTTGGC | 1.08
54 | CGCTAATATG | 1.49
55 | ACATTTACTC | 1.23
56 | ATGACTTAAA | 0.986
57 | CCGATTTGGA | 1.02
58 | TACAAGCAGA | 1.05
59 | CGAAATCTGA | 1.01
60 | CGTCGGATAC | 3.89
61 | CGTCAGTTGT | 0.977
62 | GCGTCACGTA | 1.1
63 | AGTTTTGCTA | 1.03
64 | GGAGTAGGTT | 0.99
65 | CGAGGGGTGC | 0.999
66 | CGTTGCGCCT | 1.04
67 | TAGCGTCTGC | 1.11
68 | CTCTTATAGA | 1
69 | ACAGACCGTT | 1.1

Row | Sequence | switch fluorescence ratio
70 | TGAATGACTA | 0.977
71 | TTGCGATAGT | 1.06
72 | CGGAGTGCCA | 1.01
73 | CCAGCGGAAA | 1.04
74 | TTAATGAGGT | 0.999
75 | GTTTACACTT | 0.993
76 | CCGTTGCAG | 1.18
77 | GTGTGCGAAG | 0.995
78 | TTATGTGTTA | 0.956
79 | CATGAAGAAT | 0.986
80 | TACATGGCAA | 0.978
81 | GCTTGGGGCT | 0.992
82 | CTGATTTTA | 0.987
83 | GTACTTAGTA | 0.996
84 | CGCTCTCCG | 1.26
85 | CTGTCTACGG | 1.01
86 | CACGGTGGCG | 0.962
87 | CCATGGTGCT | 1.58
88 | CGTAGTGGAG | 1.04
89 | ATTACTCGGG | 1.02
90 | ATGTTACGAT | 0.982
91 | TGATATTAAA | 0.973
92 | CGCGTAAACG | 1.02

Row | Sequence | switch fluorescence ratio
93 | GTTTTATGCA | 0.974
94 | ATAATCGGGT | 0.982
95 | GTATACCTTT | 1.01
96 | CCAGCTTATG | 0.988
97 | TAGGGCGGAT | 1.04
98 | CCCTCGATTT | 1.02
99 | AACTTGAGGT | 0.934
100 | CGGGTAGGCC | 0.983
101 | AAAAATGCTA | 1.01
102 | TCAGAAATCG | 1.02
103 | AAATCAGTTC | 1.04
104 | CTTTACAACC | 1.08
105 | GGTAATAACA | 0.978
106 | CGGGGGACCA | 0.97
107 | ATGGGTTGCA | 0.992
108 | AGCACCGGGG | 0.998
109 | GAGGAAACGG | 1.02
110 | TAGGTCGAAA | 1.01
111 | AGCTTAGGGT | 0.959
112 | TTACTAAGGA | 1.01
113 | AGCACAGCGG | 1.06
114 | TAATGGCGCA | 0.977
115 | TAATTCGG | 0.99

Row | Sequence | switch fluorescence ratio
116 | AGCTACAAAC | 1.14
117 | AGGTCAGTGT | 0.974
118 | GTCGTCCCCA | 0.935
119 | TTCGCTGTGC | 1.61
120 | GGCGGCGCTT | 0.951
121 | TCTAATGCGG | 0.988
122 | ATAGGGCAAC | 0.965
123 | TAATGCCCTT | 0.971
124 | TCTCAGACAG | 1.01
125 | AACGCATGGT | 1.05
126 | CTATGAAAGG | 0.992
127 | GGTGTGGTAG | 0.995
128 | AAAAAAACAG | 1.04
129 | CATGCGGCG | 0.956
130 | ATCCTTATCC | 1.09
131 | TGAAAGCGAC | 1.91
132 | TACGTTAGCG | 1.02
133 | GGGAGTGCGT | 0.942
134 | ATGGAATTAA | 1.03
135 | CTAGAGAACT | 1.03
136 | TGTTTGTGGA | 0.982
137 | ATGTATGTAT | 1.01
138 | TAGACAGGAT | 1.01

Row | Sequence | switch fluorescence ratio
139 | AAGGTTGTAT | 0.997
140 | GTGGTGCTGT | 0.997
141 | GGCCGGGTCT | 1.04
142 | TGGTCGGTTT | 0.988
143 | CCGCGCTAGG | 1.57
144 | TGGCGGACGC | 0.979
145 | CACTGCCATT | 1.19
146 | AGCTGGGTGT | 1.01
147 | AGATATGCAC | 1.05
148 | AAGGTTGCAG | 0.974
149 | CTGTTGCAGC | 1.13
150 | ATTATCAGTG | 0.962
151 | CGTAGCAACT | 2.68
152 | AGTATACAGG | 0.938
153 | AATCTTATCG | 0.953
154 | AGTTATTCGC | 0.994
155 | GGATAGCTAC | 1.18
156 | GATATTCGTG | 0.967
157 | TTTACTCTAG | 1.13

Source: the supplement of paper PMC10126150
